In paper PMC8544235, “Expression and Display of Glycoengineered Antibodies and Antibody Fragments with an Engineered Yeast Strain” (Antibodies, 2021) one finds Kd data, which are given here for one molecule.

In this experiment the target is T1, Rituximab expressed from the EBY100-(GPD) EndoS2 strain (truncated N-glycan) (human, N-glycan at N297 of a single N-acetylglucosamine residue (99.36% by ESI-MS)).
T1 construct: variable region of the Rituximab heavy chain; constant region of the human IgG1 heavy chain, as in Rituximab; Rituximab light chain; IgG1; It is a molecule here only as the ligand of FcγRIIIa and of Protein A; A supplemental MS Excel worksheet lists peptides that cover 93.9% and 100% of the heavy and light chains; also called yeast-expressed Rituximab; glycoengineered Rituximab; source: S. …
Briefly: SPR; Rituximab immobilised on a CM5 chip, BiaCore T200; increasing concentrations of GFP-FcγRIIIa applied until equilibrium; 1:1 binding model. Particulars: both partners purified.

B1: GFP-FcγRIIIa (receptor)
chain: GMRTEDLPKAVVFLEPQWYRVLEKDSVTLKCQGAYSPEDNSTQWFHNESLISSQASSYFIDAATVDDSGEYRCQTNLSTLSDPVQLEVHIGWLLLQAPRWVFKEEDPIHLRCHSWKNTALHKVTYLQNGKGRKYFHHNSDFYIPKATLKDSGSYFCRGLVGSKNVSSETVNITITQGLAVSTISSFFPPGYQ
In turn, B1 gave a Kd of 2 µM.
